The term viability, T/C denotes the result in the treated group divided by that in the control group, in per cent. What is called IC50 is the point on the concentration scale where inhibition reaches its midpoint.

The assay relates to 519858-162-T-J1-PDC complex spheroid viability. Put plainly: Anticancer human tumor 519858-162-T-J1-PDC patient-derived colon adenocarcinoma cell line growth inhibition [GQUAD]. Conditions: for viability, T/C: stronger effect = lower value. The source says: DNA G-quadruplex Stabilizer Agents in Combinations in Complex Spheroids
A high-throughput screen of multi-cell type tumor spheroids was designed to identify active combinations of DNA G-quadruplex stabilizer agents and targeted small molecules. Complex spheroids include a stromal component modeled by human endothelial cells (HUVEC) and fibroblasts modeled by human mesenchymal stem cells (MSCs). The concentration ranges selected for each drug and investigational agent were based upon clinically achievable concentrations if the clinical Cmax of the agent was known.
Compounds. The drugs and investigational agents: pidnarulex (CX-5461; NSC782164), APTO-253 (NSC789042), BRACO-19 (NSC847499), peposertib (NSC802822), ceralasertib (NSC780249), elimusertib (NSC800525), camonsertib (NSC841442), AZD-1390 (NSC803789), olaparib (NSC753686), talazoparib (NSC767125), ART-558 (NSC835418), sotorasib (NSC818433), MRTX-1133 (NSC836407), SN-38 (NSC673596), topotecan (NSC609699), etoposide (NSC141540), doxorubicin (NSC123127), gemcitabine (NSC613327), 5-fluorouracil (NSC19893), paclitaxel (NSC125973), vemurafenib (NSC761431), panobinostat (NSC761190), R-306465 (JNJ-16241199; NSC773264), adavosertib (NSC754352), TP-3654 (NSC805149), carboplatin (NSC241240), KSQ-4279 (NSC840948), and staurosporine (NSC755774) were obtained from the National Cancer Institute (NCI) Developmental Therapeutics Program Chemical Repository (34). The FDA-approved anticancer drug set is available from the NCI Developmental Therapeutics Program. […] The stock solutions were prepared in dimethyl sulfoxide (DMSO, Sigma-Aldrich, St. Louis, MO, cat. D2650) at 800-fold the tested concentration and stored at -70 degrees C prior to their use. All drugs and investigational agents were tested over a range starting from a high concentration at or near the clinical Cmax and decreasing in half-log increments. If the clinical Cmax for an agent had not been determined, the highest concentration tested was 10 microM.
2.3 Cell Culture. All cells were maintained in an incubator at 37 degrees C and 5% CO2 with 95% humidity. The PDC lines were cultured according to standard operating procedures established by the NCI PDMR. All PDCs were thawed and cultured in Matrigel-coated flasks prepared with a working solution of 1X Ham's F-12 nutrient mix, without supplementation (Invitrogen, cat. 11765054), 100 U/mL penicillin-streptomycin (Invitrogen, cat. 15140122), and 2.5% Matrigel (Corning Inc., cat. 354248) for the first three passages. The 857933-349-R-J2-PDC line was cultured in 6C/Colon 1B media, which includes advanced DMEM/F-12 (Thermo Fisher Scientific, cat. 12634028), 10 mM HEPES (Thermo Fisher Scientific, cat. 15630080), 1X GlutaMAX supplement (Thermo Fisher Scientific, cat. 35050061), 0.1 mg/mL primocin (InvivoGen, cat. ant-pm-2), 10% defined fetal bovine serum, heat inactivated (HyClone Laboratories Inc., cat. SH30070.03HI), 50% L-WRN conditioned media (ATCC, cat. CRL-3276), 1.25 mM N-Acetyl-L-cysteine (Sigma-Aldrich, cat. A9165), 10 mM nicotinamide (Sigma-Aldrich, cat. N0636), 1X B-27 supplement (Thermo Fisher Scientific, cat. 17504044), 1X N-2 supplement (Thermo Fisher Scientific, cat. 17502048), 10 microM Y-27632 dihydrochloride (Tocris Bioscience, cat. 1254), and 50 ng/mL human EGF recombinant protein (Thermo Fisher Scientific, cat. PHG0311). The 485176-168-R4-J1-PDC line was cultured in Panc media, which includes all 6C/Colon 1B media components plus 100 ng/mL human FGF-10 (Thermo Fisher Scientific, cat. 100-26), 500 nM SB-431542 (Selleckchem, cat. S1067), and gastrin (Tocris, cat. 3006).
[…]

The source holds more than one record for some entries. The list is limited to them. There may be further records. The records of an entry are repeats across runs, samples, wells, individuals or studies.
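Note: spheroids exposed to compounds for 7 days.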

Regarding `Cc1cnc(CNC(=O)c2c(=O)c3ccc(N4CCCN(C)CC4)nc3n3c2sc2ccccc23)cn1`, the viability, T/C is, setting by setting: (compound alone 0.0316 µM) 92.6, 68.2, 71.8, 86.9, 81.6, 73.3, 100, 89, 66.9, 102%; (compound alone 0.1 µM) 91.8, 82.5, 85, 71.4, 95.8, 66.8, 83.9, 65.9, 78.7, 84.2%; (compound alone 0.316 µM) 55.5, 73.9, 77.7, 59.8, 70.6, 60.1, 72.9, 83.5, 76.7, 82.2%; (compound alone 3.16 µM) 61.5, 77.6, 79.6, 40.8, 53.6, 70.2, 65.3, 65.5, 58.2, 56.5%. Also, for the setting “compound alone, run of 02/20/2024”, the IC50 is > 10 µM, 7.62 µM, 9.76 µM, 4.08 µM, 5.43 µM.
As to `CN(C)c1ccc(Nc2c3ccc(NC(=O)CCN4CCCC4)cc3nc3cc(NC(=O)CCN4CCCC4)ccc23)cc1`, the viability, T/C is, setting by setting: (compound alone 0.1 µM) 69.3, 94, 84.4, 71.2, 102, 84.6, 117%; (compound alone 0.316 µM) 69.5, 93.4, 78.6, 81, 99, 89.7, 86.1%; (compound alone 1 µM) 85.8, 70.8, 60.7, 86.7, 94.9, 82.1, 101%; (compound alone 3.16 µM) 81.9, 73.8, 86.3, 58.8, 74.8, 71.2, 72.8%.
For the molecule `Cc1[nH]c2ccc(F)cc2c1-c1nc2c3cccnc3c3ncccc3c2[nH]1`, the viability, T/C is 72.8, 82.8, 86.1, 87.8, 80.1, 66.5, 92.8, 81.8, 87.6% (compound alone 0.0316 µM); 92.5, 125, 115, 108, 85.8, 89.4, 67.5, 80.4, 84% (compound alone 1 µM); 75.4, 96.3, 79.2, 60.5, 69.2, 97.4, 83.5, 63.6, 67.1% (compound alone 3.16 µM); 46.9, 66.9, 58, 57.1, 48.6, 77.5, 88.7, 68.1, 70.3% (compound alone 10 µM).

The values are drawn from PubChem BioAssay AID2060507 (Molecular Pharmacology Branch, DTP, NCI, 2025).
